Measurements: the antibiotic and cytotoxicity screens of Wong et al. (2023)
The other results are listed elsewhere or left out.

test system: S. aureus RN4220; assay: growth inhibition call (relative growth <= 0.2); conditions: 50 µM

Growth inhibition call, inactive:
COc1ccc(NC(=O)N(C)C[C@@H]2Oc3ccc(NC(=O)Cn4cnnn4)cc3C(=O)N([C@@H](C)CO)C[C@@H]2C)cc1
C[C@H]1CCCCO[C@H](CN(C)Cc2ccc(C(F)(F)F)cc2)[C@@H](C)CN([C@@H](C)CO)C(=O)c2cc(NC(=O)Nc3cccc4ccccc34)ccc2O1
C[C@@H]1CN([C@H](C)CO)S(=O)(=O)c2ccc(C#CC3(O)CCCC3)cc2O[C@H]1CN(C)C(=O)Nc1ccc(F)cc1
C[C@@H]1CCCCO[C@@H](CN(C)C(=O)Nc2ccc(F)cc2)[C@@H](C)CN([C@@H](C)CO)C(=O)c2cc(NC(=O)Cc3ccccc3)ccc2O1
C[C@@H]1CN([C@@H](C)CO)C(=O)Cc2cc(NC(=O)NC3CCCCC3)ccc2O[C@H]1CN(C)S(C)(=O)=O
Cn1c(CNc2ccccc2)cc(=O)n(C)c1=O
C[C@@H]1CN([C@H](C)CO)C(=O)CCCn2nncc2CO[C@@H]1CN(C)C(=O)c1cc(-c2ccccc2)on1
C[C@H]1CN([C@@H](C)CO)C(=O)c2cc(NC(=O)c3ccncc3)ccc2O[C@H]1CN(C)Cc1ccc(Oc2ccccc2)cc1
CC(=O)NCc1nccc(N2CCCC2)n1
Cc1ccc(S(=O)(=O)N(C)C[C@@H]2Oc3ccc(NS(=O)(=O)c4c(C)noc4C)cc3C(=O)N([C@@H](C)CO)C[C@@H]2C)cc1
C[C@H](CO)N1C[C@H](C)[C@H](CN(C)C(=O)Nc2ccc(F)cc2)OCCCC[C@H](C)Oc2ccc(NS(=O)(=O)c3cccs3)cc2C1=O
